Data on 63 sequences can be found in the supplement of paper PMC10681739.

In all, about 4,000 sequences were measured (“arbitrary fluorescence units”: median about 830, highest 2% from about 6,500 on). Most of the strongest results are missing from this list.
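Note: Full-length recombinant human RUNX1 bound to double-stranded DNA microarray spots, detected with an Alexa488-labelled secondary antibody after the anti-RUNX1 primary, read as scanned spot fluorescence.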

The test has as its target RUNX1 (UniProt Q01196). Nature of the test: RUNX1 binding intensity (PBM fluorescence), RUNX1 alone (arbitrary fluorescence units); higher = stronger binding. The settings on record: RUNX1 concentration 2 nM; ETS1 concentration 0 nM. The method, then: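 gcPBM on 36-bp genomic-derived probes (partner site mutated) containing one RUNX1 site and no ETS1 site. Recombinant human RUNX1 (2 nM) was incubated alone or with ETS1 (25 nM) and detected by anti-RUNX1 antibody fluorescence. Values are medians over 4 replicate spots (not normalised). The probes sit in constant array flanks that are not printed.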
Sequence of UniProt Q01196 (Q01196 whole entry): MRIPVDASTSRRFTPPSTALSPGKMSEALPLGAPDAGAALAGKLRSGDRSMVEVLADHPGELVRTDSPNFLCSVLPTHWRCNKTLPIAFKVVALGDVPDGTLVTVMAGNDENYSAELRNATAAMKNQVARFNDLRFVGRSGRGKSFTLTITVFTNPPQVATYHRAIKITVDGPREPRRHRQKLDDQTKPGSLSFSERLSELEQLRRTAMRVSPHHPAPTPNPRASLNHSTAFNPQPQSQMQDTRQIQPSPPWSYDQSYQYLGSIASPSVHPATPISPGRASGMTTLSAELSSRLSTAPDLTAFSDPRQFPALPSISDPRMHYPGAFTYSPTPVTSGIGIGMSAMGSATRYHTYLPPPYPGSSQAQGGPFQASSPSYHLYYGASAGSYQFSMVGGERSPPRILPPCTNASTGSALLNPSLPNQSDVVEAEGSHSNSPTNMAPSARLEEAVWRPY
The sequence TCGCTGGGACCGCGGCTGGGCGCCCGGGGGCGGGGC returned an RUNX1 binding intensity of 725.

Sequence CGTTCAGGGTTGCGCCTGAGCCCGCAGCACAGGACG showed an RUNX1 binding intensity of 789.

The sequence ACCGTGCGGTCTGCAAGCAACCCTTGCGCTCCTTCA yielded an RUNX1 binding intensity of 1090.

Sequence ATGGATATAAACCTCAAACAGGAGGTGATAAAGCAA registered an RUNX1 binding intensity of 772.

Turning to AGCAACATGAAAGAACAGCCTGACCACAGCAGCCAC, the RUNX1 binding intensity stood at 905.

As for CCGCTGTGGGAACTGGAACCTCCCTCACAGAAAGGG, the RUNX1 binding intensity worked out at 802.

For the sequence TCGCCTGCGGCAAACAGGCCAGATCCCCAGCCCATC, the RUNX1 binding intensity came out at 764.

The sequence AATGCTGAGAACCACAGGCTCACAGCATGCCCATCT showed an RUNX1 binding intensity of 718.

The sequence CATAGGCAGTGCTCAGCTCTCCTCCACCGCAAGTTT had an RUNX1 binding intensity of 829.

In the case of CTAGAGACGCGGTAGAAAGGTTCAGCCCGCTCCCTG, the RUNX1 binding intensity was 767.

GCCACATATTTGCTGTGACAACCCTGTGGTGTGGCT showed an RUNX1 binding intensity of 773.

As for AACTTAGCTTACGGCAAGAAGGCGAGCGGTGGGAGG, the RUNX1 binding intensity was found to be 816.

Sequence CGCCTGCCCCACTTTCGCCCGGACCCGCAGCCCCTA showed an RUNX1 binding intensity of 1300.

The sequence GACATCCAGCAAGTGGTGAGAAACCACGTGTGTGTT returned an RUNX1 binding intensity of 855.

As to GAAAACACAGAAAGCCGTCCGCGCAACCGCGTTGCA, the RUNX1 binding intensity was 700.

As for TGTCCGGGCAGCAAGGGGTGCTCTGTGGGCTTGGAG, the RUNX1 binding intensity came to 691.

Turning to GTCGCTGTGGTTGCCTGAAACAGCAAATCCTTCTGC, the RUNX1 binding intensity is 879.

The sequence CTGGAAACCACCTCTCGCTCCAGTTCCCAGCACCCC registered an RUNX1 binding intensity of 1260.

TGCAACGCGGTTGCGCGGACGGCTTTCTGTGTTTTC yielded an RUNX1 binding intensity of 785.

Turning to TCTCCTTTCAGGGAGCTGCACCCAAACCACCCTCAG, the RUNX1 binding intensity worked out at 861.

For CCTGCCCTGCGTGGTTTTGTCACTTGCTGCTCAGAG, the RUNX1 binding intensity was found to be 1020.

Consider GTTGCAAAGGCGCCCACAACTACTTTCGCTTCTAGT, for which the RUNX1 binding intensity worked out at 821.

CTCCAGGGACCACAGCGGGAGAGGCAATAGCCACCA registered an RUNX1 binding intensity of 847.

ACCTAATGGCCACAATGGAGAACTGCAGGGTGTAGA showed an RUNX1 binding intensity of 761.

GCAAACACACCACAGACTGCAGACCCGAAAGAACTT returned an RUNX1 binding intensity of 1020.

In turn, ATCGGCAACCAGTGAGCTCATTAGAAACCGCTTATC registered an RUNX1 binding intensity of 803.

TGACTAAGATCGGAAGAAACCACAAAAACACAAAAA gave an RUNX1 binding intensity of 2220.

As for GGAGGAACAACCACTGGTTGTCCACGTTCCAGTCGT, the RUNX1 binding intensity stood at 680.

The sequence CAAACCACCTAATTAGGATAATGGAGAGGCAGCCCA came in with an RUNX1 binding intensity of 738.

With TCAGCTGCGGGATGAGTCAGTGCGAGCAGGGAGCAC, the RUNX1 binding intensity stood at 748.

The sequence TCTCACCCCGCAAAGACTCCACCCTTGCTGGCCCTT showed an RUNX1 binding intensity of 1110.

The sequence TCGGACCAGAACGGAGCAGAGTCGTGCGTGGTTGCT came in with an RUNX1 binding intensity of 745.

AACACTACACAGCCTCTCTTGTTGTGGCTGCTGAAC yielded an RUNX1 binding intensity of 797.

Sequence GGCAACCCAAGGACGTATCTCTGAAACCACACAACA displayed an RUNX1 binding intensity of 1060.

TACGCAGCCCACAAGCCCGACAGCATGTCATGAATA came in with an RUNX1 binding intensity of 769.

The sequence TTATCGGAACTGCGGGTTGGGCAGGGAGCAGCATGA registered an RUNX1 binding intensity of 810.

In turn, GCCACTCCCGGTCACTCCCCGCTGCGGCCTCGCGCT gave an RUNX1 binding intensity of 1180.

Turning to TGTGTAATCCCCACCACAACCTAGGAGGTGGGAAAA, the RUNX1 binding intensity is 731.

In turn, AGCGCCACACCTCCGCTTTGCGGCAGTGTGCGCCCC displayed an RUNX1 binding intensity of 790.

Consider GACTATGTGCTTCAGGTCTCCAATACCGCAGGAGGG, for which the RUNX1 binding intensity came to 892.

On to AACGTCATTCCCGAGAGCCTGAAGCAGCCGCAGGCC, for which the RUNX1 binding intensity turned out to be 915.

GCAGGGACCGGGAGTCCATGGCTCTGCCGCAACCCT returned an RUNX1 binding intensity of 680.

In turn, TCCGCGGCCCGCAGGAACGCCAGCAAGCCTAGGCCG came in with an RUNX1 binding intensity of 688.

ACAAGGAGACATTCAGAGGTTTTTGAGGTCAGGATT showed an RUNX1 binding intensity of 785.

Sequence GGGCGGGTCAGCGCAAGTGAGGGCGGTTGAGGCTGG registered an RUNX1 binding intensity of 716.

GGGGCCTCACCGCAGGTTCCACCTCCTTTCTGGGTA gave an RUNX1 binding intensity of 1740.

Consider AGCTTTTCTGAGACCGCGGGCAGGAGGTGACCTCCC, for which the RUNX1 binding intensity stood at 912.

As to CCACACTGCCCCGCAAGGCGTTGCCGGGTTTTGAGG, the RUNX1 binding intensity stood at 798.

AGCTTTCTGTTTGGCCTTGCTGATGTCACCGCATTA had an RUNX1 binding intensity of 880.

Take TTGAAAACCACGACTCCTGACACAGTAGTTCCACCT: the RUNX1 binding intensity amounted to 1080.

On to ACCCGACCCACAAGCGACCCTGCATGAAGGGCTGGG, for which the RUNX1 binding intensity was 863.

As for CTGGAGCCGTCAGGGTCTGGCCCCTGCGGCCGCGCA, the RUNX1 binding intensity came out at 737.

In the case of ACGACCGCAGGGGAAAGCAAGCCGGCCAGATGAGAA, the RUNX1 binding intensity amounted to 766.

On to CTCTAGAGGCTCCCTGCCCAACCACCAAGAAAAAGC, for which the RUNX1 binding intensity was 915.

As to AGCTGCGGGAACCCCAGTGAGAGTGTGATTGCCTCT, the RUNX1 binding intensity came to 698.

Turning to ACCCTCAGCTGCGGCTACAGACACTGCCTAGAATCT, the RUNX1 binding intensity came out at 934.

With CTAGCCACCGCGGCCCCACCCTCTTACGGCCTCAGC, the RUNX1 binding intensity came to 1030.

For the sequence TTTGCGGGCGATTCCCTCTCAGGACTCCCGGACAGG, the RUNX1 binding intensity was determined as 849.

Consider AAACAGCAAATCACAGCAGCGTTGCGGAGTGGAGCA, for which the RUNX1 binding intensity was found to be 714.

For the sequence ACAAGGACTGCCGCCTCCCTGCGGTCCCTCCCCTAC, the RUNX1 binding intensity was determined as 920.

With GCACATGAAAAGCTGCTTTCCGCGTGGTAAATTCAA, the RUNX1 binding intensity amounted to 757.

TCGGGTTCTGCCAGCTTGCACCGCCCCGCAAGGTCG yielded an RUNX1 binding intensity of 698.

GCTTCGATTCCCGCCGGGGCTCACCGCGCCCCCCTA gave an RUNX1 binding intensity of 978.
